Laboratory results taken from the RNAGym collection of RNA variant scans (doi:10.1093/nar/gkz1192).
Read counts are not given, so values of variants with three or more changes are uncertain.

B1: CPEB3 Ribozyme (parent)
chain: UAACAGGGGGCCACAGCAGAAGCGUUCACGUCGCAGCCCCUGUCAGAUUCUGGUGAAUCUGCGAAUUCUGCUGUAUAUCUC

Variants of: B1
Experiment: self-cleavage, relative activity (ratio to wild type); higher = more cleavage; in vitro, sequencing
Summary of the method: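 CPEB3 self-cleaving ribozyme mutant libraries were made by rounds of error-prone PCR, barcoded, and transcribed in vitro with T7 RNA polymerase for 5 hours at 37°C. Cleavage occurred during transcription and a 15 min DNase I step before EDTA stop. RNAs were reverse transcribed with template switching and Illumina-sequenced, with DNA sequencing mapping barcodes to variants. Relative activity is the variant's cleaved/total read fraction divided by wild type's (minimum 5 reads), averaged across three batches.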

Question: With UAACAGGGGACCACAGCAGAAGUGUUCACGUCGCAGCCCCUGUCAGACUCUGGUGAAUCUGCGAAUUCUGCUGUAUACCUC as the variant, how does the self-cleavage read?
Answer: 0.05

Question: For UAACAGGGGACCACAGCAGAAGCGUUUACGUCGCAACCCCUGGCAGAUUCUGGUGAAUCUGCGAAUUCUGCUGUAUAUCUC, which self-cleavage is on record?
Answer: 0.11

Question: Which self-cleavage does the source give for UAACAGGGGACCACAGCAGAAGCGUUCAAGUCGCAGCUCCUGUCAGAUUCCGGUGAAUCUGUGAAUUCUGCUGUAUUUCUC here?
Answer: 0.04

Question: Which self-cleavage does the source give for UAACAGGGGACCACAGCAGAAGCGUUCAGGUCGCAGCCCCUGUCAGAUUCUGGUGAAUCUGCGAAUUCUGCUGUAUAUUUC here?
Answer: 0.06

Question: Which self-cleavage does the source give for UAACAGGGGACCACAGCAGAAGCGUUCAGGUCGCAGCCCCUGUCAGAUUCUGGUGAAUCUGCGAAUUCUGCUGUAUACUUC here?
Answer: 0.17

Question: Which self-cleavage does the source give for UAACAGGGGACCACAGCAGAAGCGUUCAUGUCGCAGCCCCUGUCAGAUUCAGGCGAAUCUGCGAAUUCUGCUGUAUAUCUC here?
Answer: 0.06

Question: With UAACAGGGGACCACAGCAGAAGCGUUCACGUAGCGGCCCCUGUCAGAUUCUGGCGAAUCUGCGAAUUCUGCUGUAUAUCUC as the variant, how does the self-cleavage read?
Answer: 0.08

Question: Which self-cleavage does the source give for UAACAGGGGACCACAGCAGAAGCGUUCACGUUGCAGCCCCUGUCAGACUCUGGUGAAUCGGCGAAUCCUGCUGUAUGUCUC here?
Answer: 0.04

Question: Which self-cleavage does the source give for UAACAGGGGACCACAGCAGAAGCGUUCACGUCGUAGCCCCUGUCAGAUUCUAGUGAAUCUGCGAAUUCUGCUGUAUAUCUC here?
Answer: 0.08

Question: Which self-cleavage does the source give for UAACAGGGGACCACAGCAGAAGCGUUCACGUCGCAGUCCCUGUCAGAUUCUGGUGAAUCUACGUAUUCUGCUGUAUAUCUC here?
Answer: 0.05

Question: With UAACAGGGGACCACAGCAGAAGCGUUCACGUCGCAGCCACUGUCAGAUUCUGGUGAAUCUGCGAAUUCUGCUGCAUAUCUC as the variant, how does the self-cleavage read?
Answer: 0.27

Question: Which self-cleavage does the source give for UAACAGGGGACCACAGCAGAAGCGUUCACGUCGCAGCCCUUGUCCGAUUCUGGUGGAUCUGCGAAUUCUGCUGUAUAUCUC here?
Answer: 0.08

Question: For UAACAGGGGACCACAGCAGAAGCGUUCACGUCGCAGCCCUUGUCAGAUUCUGGUGAAUCUGCGAAUUCUGCCGUAUAUCUC, which self-cleavage is on record?
Answer: 0.18

Question: With UAACAGGGGACCACAGCAGAAGCGUUCACGUCGCAGCCCCUGUACGAUUCUGGGGGAUCUGCGAAUUCUGCUGUAUAUCUC as the variant, how does the self-cleavage read?
Answer: 0.17

Question: Which self-cleavage does the source give for UAACAGGGGACCACAGCAGAAGCGUUCACGUCGCAGCCCCUGUUAGAUUCUGGCGAAUCUGCGAAUUCUGCUGUAUGACUC here?
Answer: 0.04

Question: Which self-cleavage does the source give for UAACAGGGGACCACAGCAGAAGCGUUCACGUCGCAGCCCCUGUCAGAUUCUGGUGAAUCUGGGAAUUCUGCUGUAUGUCUC here?
Answer: 0.05

Question: For UAACAGGGGACCACAACAGUAGCGUUCACGUCGCAGCCCCUGUCAGAUUCUGGUGAAUCUGCGAAUUCUGCCGUAUAUCUC, which self-cleavage is on record?
Answer: 0.1

Question: Which self-cleavage does the source give for UAACAGGGGACCACAAUAGAAGCGUUCACGUCGCAGCCCCUGUCAGACUCUGGUGAAUCUGCGAAUUCUGCUGUACAUCUC here?
Answer: 0.13

Question: With UAACAGGGGACCACAACAGAAGCGAUCACGUCACAGCCCCUGUCAGAUUCUGGUGAACCUGCGAAUUCUGCUGUAUAUCUC as the variant, how does the self-cleavage read?
Answer: 0.05

Question: With UAACAGGGGACCACACCAGAAGCGUUCACGCCGCAGCCCCUGUCAGAUUCUGGUGAAUCUGUGAAUUCUGCUGCAUAUCAC as the variant, how does the self-cleavage read?
Answer: 0.05

Question: Which self-cleavage does the source give for UAACAGGGGACCACAGCACAGGCGUUCACGUCGCAGCCCCUGUCAGAUUCUGGUGAAUCUGCGAAUUCUGCCGUGUAACUC here?
Answer: 0.05

Question: With UAACAGGGGACCACAGCACAAGCGUUCACCUCGCAGCACCUGUCAGAUUCUGGUGAAUCUGCGAAUUCUGCCGAAUAUCUC as the variant, how does the self-cleavage read?
Answer: 0.02

Question: With UAACAGGGGACCACAGCAUAAGCGUUCUCGUCACAGCCCCUGUCAGAUUCUGGUGAAUCUGCGAACUCCGCUGUAUAUCUC as the variant, how does the self-cleavage read?
Answer: 0.03

Question: With UAACAGGGGACCACAGCAGAAACGUUCACGUCGCAGCCCCUGUCAGAUUCUGGUGAAUCUGCGAAUUCUGCUGAAUAUCUC as the variant, how does the self-cleavage read?
Answer: 0.25

Question: Which self-cleavage does the source give for UAACAGGGGACCACAGCAGAAGCAUUCACGUCGCAGCCCCUGUCAGAUUCUGGUGUAUCUGCGGACUCUGCUGUAUAUCUA here?
Answer: 0.05

Question: Which self-cleavage does the source give for UAACAGGGGACCACAGCAGAAGCAUUCACGUCGCAGCCCCUGUCAGAUUCUGGUGAAUCUGCGAAUUCUGCUAUAUAUCUC here?
Answer: 0.03

Question: With UAACAGGGGACCACAGCAGAAGCAUUCACGGCGCAGCCCCUGUCUGAUUCUGGUGAAUCUGCGAACUCUGCGGUAUAUCUC as the variant, how does the self-cleavage read?
Answer: 0.02

Question: With UAACAGGGGACCACAGCAGAAGCGUUCACUUCGCAGCCCUUGUCAGAUUCCGGUGAAUCUGCGAAUUCUGCUGUAUAUCUC as the variant, how does the self-cleavage read?
Answer: 0.05

Question: Which self-cleavage does the source give for UAACAGGGGACCACAGCAGAAGCGUUCACGUCACAGCCCCUGUCAGAUCCUGGUGAAUCUGCGAAUUCUGCUGUAUAUCUC here?
Answer: 0.33

Question: For UAACAGGGGACCACAGCAGAAGCGUUCACGUCACAGCCCCUGUCAGAUUCUGGUGAAUCUGCGAAUUCUGCCGUAUAUCUC, which self-cleavage is on record?
Answer: 0.06

Question: With UAACAGGGGACCACAGCAGAAGCGUUCACGUCGCAACCCCUGUCGGAUUCUGGUGAAUCUGCGGAUUCUGCUGUAUAUCUC as the variant, how does the self-cleavage read?
Answer: 0.04

Question: Which self-cleavage does the source give for UAACAGGGGACCACAGCAGAAGCGUUCACGUCGCACCCCCUGUAAGAUUCUGGUGAAUCUGCGAAUUCCGCUGUAUAUCUC here?
Answer: 0.06

Question: For UAACAGGGGACCACAGCAGAAGCGUUCACGUCGCAUCCCCUGUCAGAUUCUGGUGAAUCCGCGAAUUCUGCUGUAUAUCUC, which self-cleavage is on record?
Answer: 0.18

Question: Which self-cleavage does the source give for UAACAGGGGACCACAGCAGAAGCGUUCACGUCGCAGCCCCUGUCAGAUUCUAGUGAACCUGCGAAUUCUUCUGUAUAUCUC here?
Answer: 0.05
